How the values were obtained:
recombinant human VEGF = target: T1, recombinant human VEGF (human, UniProt P15692-4 27-191, limits assumed); experiment: cell-based or functional assay
T1 sequence (looked up): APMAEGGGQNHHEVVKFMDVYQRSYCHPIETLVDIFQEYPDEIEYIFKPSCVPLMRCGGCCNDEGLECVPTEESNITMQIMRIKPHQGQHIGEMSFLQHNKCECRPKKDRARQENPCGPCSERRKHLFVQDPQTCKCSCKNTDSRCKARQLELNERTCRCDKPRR

[1] = target: T2, rabbit Tie2 (form not stated) (rabbit); experiment: SPR, summary table, column Rabbit Tie2, Kd [M]
T2 construct: also called rabbit ortholog of Tie-2

[2] = target: T3, Rabbit dimeric Tie2 (Tie2-Ig3-FNIII(1-3)-mouse IgG1 Fc fusion) (rabbit; mouse, UniProt Q02763 349-738, limits assumed); experiment: SPR (Biacore 3000), Tie2 immobilised on CM5, IGT-427 injected, 1:1 Langmuir fit
T3 construct: also called rabbit Tie2-Fc fusion protein; not shown: mouse IgG1 Fc of the pFuse-mouse IgG1 Fc2 vector
T3 chain: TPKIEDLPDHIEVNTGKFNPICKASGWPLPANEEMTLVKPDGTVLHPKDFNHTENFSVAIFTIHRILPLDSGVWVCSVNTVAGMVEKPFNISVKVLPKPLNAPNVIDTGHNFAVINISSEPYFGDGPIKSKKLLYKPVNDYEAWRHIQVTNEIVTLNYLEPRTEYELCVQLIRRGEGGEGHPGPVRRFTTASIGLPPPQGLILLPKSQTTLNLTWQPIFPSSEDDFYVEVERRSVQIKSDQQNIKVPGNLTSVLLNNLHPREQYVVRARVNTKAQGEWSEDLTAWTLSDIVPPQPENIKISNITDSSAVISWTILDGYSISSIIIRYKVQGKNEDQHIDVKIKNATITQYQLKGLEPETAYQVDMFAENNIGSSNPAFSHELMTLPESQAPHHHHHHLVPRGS

[3] = target: T4, Rabbit monomeric Tie2 (Tie2-Ig3-FNIII(1-3)) (rabbit, UniProt Q02763 349-738 (human entry), limits assumed); experiment: as above
T4 chain: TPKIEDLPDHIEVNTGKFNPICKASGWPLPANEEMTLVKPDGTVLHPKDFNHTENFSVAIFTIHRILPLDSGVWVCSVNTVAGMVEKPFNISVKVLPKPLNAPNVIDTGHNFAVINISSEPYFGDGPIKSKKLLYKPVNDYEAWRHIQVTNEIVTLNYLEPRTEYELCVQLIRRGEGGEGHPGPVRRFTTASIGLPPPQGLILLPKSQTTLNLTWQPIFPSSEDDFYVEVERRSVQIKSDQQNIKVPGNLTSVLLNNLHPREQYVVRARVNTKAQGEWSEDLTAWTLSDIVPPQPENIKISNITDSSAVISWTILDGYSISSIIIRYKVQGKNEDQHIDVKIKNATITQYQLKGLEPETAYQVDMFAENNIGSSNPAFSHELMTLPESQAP

[4] = target: T5, Mouse dimeric Tie2 (Tie2-Ig3-FNIII(1-3)-mouse IgG1 Fc fusion) (mouse, UniProt Q02858 349-737); experiment: as above
T5 construct: also called mouse Tie2-Fc fusion protein; not shown: mouse IgG1 Fc of the pFuse-mouse IgG1 Fc2 vector
T5 sequence: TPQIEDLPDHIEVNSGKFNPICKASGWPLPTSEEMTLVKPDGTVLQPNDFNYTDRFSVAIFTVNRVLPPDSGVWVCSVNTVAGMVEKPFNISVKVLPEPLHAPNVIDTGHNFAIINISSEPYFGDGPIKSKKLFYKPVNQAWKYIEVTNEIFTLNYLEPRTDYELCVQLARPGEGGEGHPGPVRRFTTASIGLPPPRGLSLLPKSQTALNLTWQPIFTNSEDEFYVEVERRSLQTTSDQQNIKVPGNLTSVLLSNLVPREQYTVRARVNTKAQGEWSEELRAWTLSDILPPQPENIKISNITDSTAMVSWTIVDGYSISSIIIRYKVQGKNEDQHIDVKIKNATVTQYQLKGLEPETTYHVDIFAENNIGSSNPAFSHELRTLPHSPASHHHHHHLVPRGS

[5] = target: Human monomeric Tie2 (Tie2-Ig3-FNIII(1-3)) (human, UniProt Q02763 349-738); experiment: as above
[6] = target: T6, Human dimeric Tie2 (Tie2-Ig3-FNIII(1-3)-mouse IgG1 Fc fusion) (human; mouse, UniProt Q02763 349-738); experiment: as above
T6 construct: IL2 signal peptide of the vector is left out; also called human Tie2-Fc fusion protein; not shown: mouse IgG1 Fc of the pFuse-mouse IgG1 Fc2 vector

[7] = target: T7, Mouse monomeric Tie2 (Tie2-Ig3-FNIII(1-3)) (mouse, UniProt Q02858 349-737); experiment: as above
T7 sequence: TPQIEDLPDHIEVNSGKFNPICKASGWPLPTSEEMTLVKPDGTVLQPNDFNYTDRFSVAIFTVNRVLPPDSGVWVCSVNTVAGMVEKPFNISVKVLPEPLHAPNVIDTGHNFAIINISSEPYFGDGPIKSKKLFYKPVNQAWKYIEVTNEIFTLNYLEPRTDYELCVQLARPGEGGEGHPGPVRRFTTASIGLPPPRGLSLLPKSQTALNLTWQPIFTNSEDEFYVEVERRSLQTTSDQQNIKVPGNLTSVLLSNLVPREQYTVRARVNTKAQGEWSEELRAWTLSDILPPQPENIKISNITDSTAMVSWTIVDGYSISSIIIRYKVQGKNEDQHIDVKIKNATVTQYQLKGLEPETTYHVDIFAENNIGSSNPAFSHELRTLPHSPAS

IC50, VEGF reporter assay (KDR/NFAT-RE HEK293 cells, luminescence) (recombinant human VEGF): ~0.48 nM
Kd [1]: < 0.0642 nM
Kd [2]: 0.532 nM
koff [2]: 6.82e-05 s⁻¹
kon [2]: 128000 M⁻¹ s⁻¹
Kd [3]: 0.393 nM
koff [3]: 6.49e-05 s⁻¹
kon [3]: 165000 M⁻¹ s⁻¹
Kd [4]: 3.46 nM
koff [4]: 0.000307 s⁻¹
kon [4]: 88700 M⁻¹ s⁻¹
Kd [5]: 0.25 nM
koff [5]: 4e-05 s⁻¹
kon [5]: 159000 M⁻¹ s⁻¹
Kd [6]: 0.442 nM
koff [6]: 4.7e-05 s⁻¹
kon [6]: 106000 M⁻¹ s⁻¹
Kd [7]: 3.62 nM
koff [7]: 0.000433 s⁻¹
B1: IGT-427 (Fc fusion)
heavy: EVQLVQSGAEVKKPGASVKVSCKASGYSFTSYWMNWVRQAPGQGLEWMGMIHPSDSETRLNQKFMDRVTMTRDTSTSTVYMELSSLRSEDTAVYYCARGLYGNSWGQGTLVTVSSASTKGPSVFPLAPSSKSTSGGTAALGCLVKDYFPEPVTVSWNSGALTSGVHTFPAVLQSSGLYSLSSVVTVPSSSLGTQTYICNVNHKPSNTKVDKKV[sequence of human IgG1 Fc with L234A L235A H310A (EU numbers) not given]GGGGSGGGGSGGGGSGGGGSSDTGRPFVEMYSEIPEIIHMTEGRELVIPCRVTSPNITVTLKKFPLDTLIPDGKRIIWDSRKGFIISNATYKEIGLLTCEATVNGHLYKTNYLTHRQTNTIIDVVLSPSHGIELSVGEKLVLNCTARTELNVGIDFNWEYPSSKHQHKKLVNRDLKTQSGSEMKKFLSTLTIDGVTRSDQGLYTCAASSGLMTKKNSTFVRVHEK
light: DIQMTQSPSSLSASVGDRVTITCRASQDIGISLNWYQQEPGKAIKRLIYATSSLDSGVPKRFSGSRSGTEYTLTISSLESEDFADYYCLQYASSPYTFGGGTKLEIKRTVAAPSVFIFPPSDEQLKSGTASVVCLLNNFYPREAKVQWKVDNALQSGNSQESVTEQDSKDSTYSLSSTLTLSKADYEKHKVYACEVTHQGLSSPVTKSFNRGEC
notes: Anti-Tie2 antibody with a VEGF trap fused to the C-terminus of each heavy chain; also called ITP-016
